Data reported in the supplement of paper PMC10126150.
Values marked as one replicate rest on one cluster of the flow cell; about a third of the high ones do not repeat.
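Also: ATP exposure 15 min at 22 °C before imaging.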

What follows are sequences tested on ATP (assay: switch fluorescence ratio, 500 uM ATP over buffer (Cy3 cluster intensity, sum of 5 cycles each) (fold (ratio)); higher = stronger signal-on switching upon ATP binding; sequences stand for … in TCGTCGGCAGCGTCAGATGTGTATAAGAGACAGTTTTTTTTTTTTTTTTTTTTTTTTT…TC). Conditions: aptamer strand: ATP DNA aptamer (quencher-CACCTGGGGGAGTATTGCGGAGGAAGG + anchor), 100 nM annealed; ATP concentration: 500 uM; one replicate.
Outline: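 Values give the fluorescence ratio for each switch-domain sequence, averaged from per-cluster ratios of summed target-cycle to summed buffer-cycle Cy3 intensity. The Cy3-labelled switching-strand clusters sat on a modified Illumina MiSeq flow-cell, were annealed to 100 nM quencher-labelled ATP aptamer, and were imaged in selection buffer, then after 15 min with 500 uM ATP at 22 °C. Five cycles ran with NaOH stripping and re-annealing between them, and clusters outside 100-1000 RFU were excluded.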
Work on AACCGGGGTC yielded a switch fluorescence ratio of 1.1. GTTTCGCTTT showed a switch fluorescence ratio of 0.976. In the case of AAGTTCGGTA, the switch fluorescence ratio is reported as 0.986. For AACGGGGCGT, the switch fluorescence ratio was 0.996. In the case of CTGTCTGTTT, the switch fluorescence ratio is reported as 0.951. With ATAGGATCAA the switch fluorescence ratio was 0.994. TCCGGACCTG showed a switch fluorescence ratio of 1.09. Sequence TATTCGGACT has a switch fluorescence ratio of 1.02. AGAGAGACGC was tested, and the switch fluorescence ratio was 1.13. GACACAAAGG gave a switch fluorescence ratio of 1.07. TAGCTACGAC was tested, and the switch fluorescence ratio was 1.39. TCGAGGCATG showed a switch fluorescence ratio of 1.33. In the case of GATATCCGG, the switch fluorescence ratio is reported as 1.01. AGATGACCGT showed a switch fluorescence ratio of 1.04. TCGTTGCTTG gave a switch fluorescence ratio of 1.05. In the case of CCTCGCTTTT, the switch fluorescence ratio is reported as 1.92. GGGCAGAACC showed a switch fluorescence ratio of 1.02. With TGTACGACGC the switch fluorescence ratio was 1.74. In the case of CAGTGCGAGC, the switch fluorescence ratio is reported as 1.04. TAAGAGGTAT was tested, and the switch fluorescence ratio was 1.02. Work on CGATGAGTTG yielded a switch fluorescence ratio of 0.972. Work on GCTTCCGATT yielded a switch fluorescence ratio of 1.43. ATTACTTTAC showed a switch fluorescence ratio of 1.44. With TGATCTGAGT the switch fluorescence ratio was 1.15. With TAAACGTCAT the switch fluorescence ratio was 1.1. GCATTACAGC was tested, and the switch fluorescence ratio was 1.05. With TTTTTAGC the switch fluorescence ratio was 1.01. GCATAACGAG showed a switch fluorescence ratio of 1.46. With CACTTGTATT the switch fluorescence ratio was 1. In the case of GCGTCAGGCT, the switch fluorescence ratio is reported as 1.04. TGTTATTCTT gave a switch fluorescence ratio of 1.2. Sequence TCTAGCTAGG has a switch fluorescence ratio of 1.04. TTTGTCGTGG gave a switch fluorescence ratio of 1.13. With CTGGGCTATG the switch fluorescence ratio was 0.992. With GGCCTGCGCA the switch fluorescence ratio was 1.05. With TAGCCACGAA the switch fluorescence ratio was 1. CGAAATGTGG was tested, and the switch fluorescence ratio was 1. GCAGATAGTG was tested, and the switch fluorescence ratio was 1.01. Sequence CGGTGAGTAT has a switch fluorescence ratio of 0.996. GGACTGCAGT showed a switch fluorescence ratio of 1.07. With TGCATAGGAG the switch fluorescence ratio was 1. ATCGTAGTCT was tested, and the switch fluorescence ratio was 0.978. In the case of CACACCTACG, the switch fluorescence ratio is reported as 1.64. For AAGGCGTTAC, the switch fluorescence ratio was 1.28. Work on TCAGATATCC yielded a switch fluorescence ratio of 1.01. GGCGCACGAG showed a switch fluorescence ratio of 0.998. With AGTATAAACG the switch fluorescence ratio was 1.01. In the case of GAAACCGCAA, the switch fluorescence ratio is reported as 3.68. With TCGTTGGCCA the switch fluorescence ratio was 0.999. ATCGCTCAGC gave a switch fluorescence ratio of 1.06. In the case of GAGCGTTGTT, the switch fluorescence ratio is reported as 1.02. For AAGCTAGACG, the switch fluorescence ratio was 0.974. With TCTGTTAACG the switch fluorescence ratio was 0.994. With TCTTATTTAG the switch fluorescence ratio was 1.05. With GCCTTAAGAC the switch fluorescence ratio was 1.03. GGATGTCTTC gave a switch fluorescence ratio of 0.985. In the case of CCTGCGTGCT, the switch fluorescence ratio is reported as 1.41. For CGGCCAGGGA, the switch fluorescence ratio was 1.07. In the case of ATTGGTTCTC, the switch fluorescence ratio is reported as 1.02. For ACTTCGGACG, the switch fluorescence ratio was 1.27. In the case of CCAAATTCAA, the switch fluorescence ratio is reported as 1.05. Sequence AATTGTTCTA has a switch fluorescence ratio of 0.973. For AGAGACATA, the switch fluorescence ratio was 1.01. AGCCGAGATT was tested, and the switch fluorescence ratio was 1.01. In the case of CCTGCACGCT, the switch fluorescence ratio is reported as 1.45. GACCATGATG was tested, and the switch fluorescence ratio was 1.17. GCATGTGTTG gave a switch fluorescence ratio of 0.999. Sequence CACATTGGAA has a switch fluorescence ratio of 1. Sequence CCCTCTAATC has a switch fluorescence ratio of 1.15. TTACCGTACT gave a switch fluorescence ratio of 1.11. TCGTTGGTT was tested, and the switch fluorescence ratio was 0.987. TAGAAATAT was tested, and the switch fluorescence ratio was 1.13. For GCTGGCCCTT, the switch fluorescence ratio was 0.982. TGTCCGACGT showed a switch fluorescence ratio of 1.26. Sequence GATCGCTTTA has a switch fluorescence ratio of 1.03. CTCTGTGTGC was tested, and the switch fluorescence ratio was 2.14. Work on GAAGTTTGCG yielded a switch fluorescence ratio of 0.968. Work on CATACATGGG yielded a switch fluorescence ratio of 1.05. Work on TCTGGTGACA yielded a switch fluorescence ratio of 1.02. With AATTCTGGCA the switch fluorescence ratio was 0.943. GTACCACGCG was tested, and the switch fluorescence ratio was 1.05. Work on CTCCGGCGCC yielded a switch fluorescence ratio of 1.34. For CAGGTTGCGC, the switch fluorescence ratio was 1. With GATTGCCATA the switch fluorescence ratio was 0.958. ACCAGGCACT was tested, and the switch fluorescence ratio was 1.11.
